Source: PMC3681933
Results are given in words; binding and its absence hold for the method and conditions named. Binding seen in cells or lysates may run through a third protein. Some binding calls cover weakened binding; strength is not graded here. Tags and fused reporters may be left off the sequences shown.

By UniProt entry, the sequences of proteins in these tests, tags left out.
UniProt P06780: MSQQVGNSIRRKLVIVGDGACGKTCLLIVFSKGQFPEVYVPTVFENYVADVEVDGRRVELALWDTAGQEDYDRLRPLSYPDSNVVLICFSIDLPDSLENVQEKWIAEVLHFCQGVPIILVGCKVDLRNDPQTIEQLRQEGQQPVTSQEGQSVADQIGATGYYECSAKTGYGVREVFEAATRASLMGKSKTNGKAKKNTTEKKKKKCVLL
UniProt P19073: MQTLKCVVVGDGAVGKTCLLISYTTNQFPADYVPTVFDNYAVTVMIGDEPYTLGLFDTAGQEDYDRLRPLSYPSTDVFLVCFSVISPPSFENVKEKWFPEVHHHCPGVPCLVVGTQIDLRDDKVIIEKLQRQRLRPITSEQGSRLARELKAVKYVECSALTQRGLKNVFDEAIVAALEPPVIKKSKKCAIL

Legend:
GST-Rho1 (S. cerevisiae) = GST-Rho1 (S. cerevisiae) (UniProt P06780); assay: pull-down; GST or GST fusions induced with 2% galactose for 4 h in yeast co-expressing 3HA-Msb1 (strains YEF473A wild type or YEF1395 msb1Δ, endogenous BOI1 and BOI2 present); glutathione-Sepharose beads from Triton X-100-solubilized cell lysates; anti-HA blot
[1] = target: GST-Cdc42 (WT) (S. cerevisiae) (UniProt P19073); assay: pull-down; as a1, but in yeast strains that lack BOI1 and/or BOI2: JGY2425 (boi1Δ), JGY2349 (boi2Δ) or JGY2821 (boi1Δ boi2Δ); glutathione-Sepharose beads from cell lysates; anti-HA blot
[2] = target: T1, GST-Boi2-C (aa 459-1040) (S. cerevisiae) (UniProt P39969); assay: as above
T1 sequence: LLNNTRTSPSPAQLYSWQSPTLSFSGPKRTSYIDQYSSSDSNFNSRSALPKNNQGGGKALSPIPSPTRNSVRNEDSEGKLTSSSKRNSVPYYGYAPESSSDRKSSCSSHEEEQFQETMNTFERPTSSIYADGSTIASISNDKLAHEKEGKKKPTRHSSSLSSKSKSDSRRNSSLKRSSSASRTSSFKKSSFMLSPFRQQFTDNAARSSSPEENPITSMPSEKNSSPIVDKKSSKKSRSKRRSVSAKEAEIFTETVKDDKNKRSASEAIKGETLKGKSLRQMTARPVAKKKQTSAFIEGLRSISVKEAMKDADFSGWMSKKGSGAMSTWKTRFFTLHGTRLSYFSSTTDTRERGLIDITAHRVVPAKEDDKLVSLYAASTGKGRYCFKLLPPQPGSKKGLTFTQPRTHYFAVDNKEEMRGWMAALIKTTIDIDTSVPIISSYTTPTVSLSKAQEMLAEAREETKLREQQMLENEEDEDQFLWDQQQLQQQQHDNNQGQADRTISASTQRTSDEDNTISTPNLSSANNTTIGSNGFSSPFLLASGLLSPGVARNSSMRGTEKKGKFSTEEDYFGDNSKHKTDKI

[3] = target: T2, GST-Boi1-C (aa 414-980) (S. cerevisiae) (UniProt P38041); assay: as above
T2 sequence: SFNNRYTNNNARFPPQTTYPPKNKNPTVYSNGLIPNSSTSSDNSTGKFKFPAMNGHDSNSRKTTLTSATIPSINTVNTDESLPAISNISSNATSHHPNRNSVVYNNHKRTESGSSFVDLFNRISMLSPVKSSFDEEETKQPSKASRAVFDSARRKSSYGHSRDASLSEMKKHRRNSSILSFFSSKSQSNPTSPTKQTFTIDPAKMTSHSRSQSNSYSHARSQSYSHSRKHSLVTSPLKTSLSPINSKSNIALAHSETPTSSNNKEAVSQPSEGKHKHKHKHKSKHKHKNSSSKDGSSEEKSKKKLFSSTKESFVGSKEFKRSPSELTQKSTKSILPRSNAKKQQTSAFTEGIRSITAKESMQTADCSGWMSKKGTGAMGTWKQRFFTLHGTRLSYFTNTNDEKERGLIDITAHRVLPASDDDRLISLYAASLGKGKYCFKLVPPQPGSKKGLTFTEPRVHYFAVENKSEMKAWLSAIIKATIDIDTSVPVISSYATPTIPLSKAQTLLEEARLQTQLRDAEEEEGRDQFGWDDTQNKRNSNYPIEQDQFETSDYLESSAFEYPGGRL

GST-Boi1 (S. cerevisiae) [4] = target: T3, GST-Boi1 (S. cerevisiae) (UniProt P38041); assay: as above
T3 sequence: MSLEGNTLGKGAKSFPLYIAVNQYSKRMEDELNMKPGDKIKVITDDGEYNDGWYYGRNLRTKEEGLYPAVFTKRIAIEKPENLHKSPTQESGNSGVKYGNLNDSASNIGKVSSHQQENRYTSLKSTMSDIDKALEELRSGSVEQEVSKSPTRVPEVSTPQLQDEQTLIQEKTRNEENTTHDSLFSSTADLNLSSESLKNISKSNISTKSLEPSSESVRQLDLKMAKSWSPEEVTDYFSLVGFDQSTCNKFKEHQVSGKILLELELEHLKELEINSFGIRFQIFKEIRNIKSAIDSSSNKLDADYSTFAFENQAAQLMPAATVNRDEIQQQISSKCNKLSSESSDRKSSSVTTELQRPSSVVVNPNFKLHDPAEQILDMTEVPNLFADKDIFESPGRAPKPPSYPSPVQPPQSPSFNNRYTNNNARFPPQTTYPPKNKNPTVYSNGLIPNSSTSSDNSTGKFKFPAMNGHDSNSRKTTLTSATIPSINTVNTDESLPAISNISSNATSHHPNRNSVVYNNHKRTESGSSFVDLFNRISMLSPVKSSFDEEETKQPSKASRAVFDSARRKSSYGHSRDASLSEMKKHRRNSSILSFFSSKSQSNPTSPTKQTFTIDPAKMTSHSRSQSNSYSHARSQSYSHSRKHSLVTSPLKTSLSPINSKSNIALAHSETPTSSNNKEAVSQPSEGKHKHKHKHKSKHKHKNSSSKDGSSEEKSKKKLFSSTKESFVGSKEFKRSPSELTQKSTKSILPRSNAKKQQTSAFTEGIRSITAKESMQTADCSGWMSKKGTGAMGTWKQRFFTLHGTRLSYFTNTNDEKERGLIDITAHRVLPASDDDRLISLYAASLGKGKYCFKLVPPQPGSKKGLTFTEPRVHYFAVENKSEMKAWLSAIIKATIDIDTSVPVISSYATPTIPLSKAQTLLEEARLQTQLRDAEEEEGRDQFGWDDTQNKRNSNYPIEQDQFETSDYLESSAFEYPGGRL

GST-Boi1 (S. cerevisiae) [5] = target: T3, GST-Boi1 (S. cerevisiae); assay: condition: only in cells with endogenous BOI1 and BOI2 (strain YEF1395); pull-down; GST or GST fusions induced with 2% galactose for 4 h in yeast co-expressing 3HA-Msb1 (strains YEF473A wild type or YEF1395 msb1Δ, endogenous BOI1 and BOI2 present); glutathione-Sepharose beads from Triton X-100-solubilized cell lysates; anti-HA blot

- binding (GST-Rho1 (S. cerevisiae)): binds
- binding [1]: binds
- binding [2]: binds
- binding [3]: binds
- binding (GST-Boi1 (S. cerevisiae) [4]): binds
- binding (GST-Boi1 (S. cerevisiae) [5]): no binding
B1: Msb1 tagged with three copies of HA at its N-terminus (protein, UniProt P21339 1-1137)
chain: MNDMAKPLPTPPTAEIRKSRSNSPKKAQKTNLSPNKNQNNEKNVPRSNGRTKNEHNSMDDEEFEFFHQFSREKVKGVIHVITAELKEKGPDVEFLMIPFRPEQTNDKLLTLLNQLFPLGNGQPVNEKKQLRIVSKADVWTLFQCLKYIWCRLPNSEIIGWKSYLEFKFREEDKKFPRKSFLEIMPQCLASPNHASIVYDFFDLIISISSNSRVNKMSARKISKMCAIWAFSKQIPNSDIQDYDFESAAMKSFAPNNSIQDGLDQWIPASDAMFHLLLAFLRSFVPQDLESAKLPRTLKSLLFNNQYPPRKSTAYTSETILTIPLVTLKTDVFSRKPWQLLERCNDLLDFSDHDAFEAREDYALLKSLFRKKNTVEGISRKMSQESRRLMKAMSTKHSTFQPGWAPRECIENISHLKECIEVKRLDIDDYFIWTWLSSLSFEQTSEKKKIFGRSIILEFEFDGFKKWVVFQECDITLDYNKKGQLKKKTSAQSPTTEKELPPDDFELEDPPLSKSPTLSQTYKKFQAEVPQQSTVRRDSAPDNQGIYHTVISKNALTKNKHNVNLHSFEHKISKWNPLNNLRKKSGSNSSSSSFEEKSKDAPIREEYHTNKNHKSKKEERVLSQFSTLNPDEYQLPVIETGSSNFKIEIPELMYEHDDDDSDKLKNSQKRATDSAIEELNGMVEEMMINEPDDVKISITEAETFESLTKFDQYKPSNITDDDLQSSHSSAVHSLKLSTNTNDSCADSSKYTADRKLAEPRKISEESKVNDDSSSYYSPNINNLPASRMPSQPTYSNSDSKKAFTNESRLNVLQGAVSPSQQVTPKPYKNAPGDCVSPVQQKYYQNDRRNEMSPASAPVPPSAYSPARSPQFSTNSAGFKQNTINVPVGYNDPAHVLANQPHMTYRDQHNYPSHQQKQRPFQNNIVPPELKSRNQRADASPIPQHMVPVKQGVPNLPSNVPLYQQMERMNPNHQHPVNTYKVTQPPYHNNTTNAYGNSRAGNAHMLDGKWSNNPPQMVPKGVRPNQYPQQHVNRYSPQAQPVVPAEYYNGPPPMRAPPMMSHMVPAQEPIRYTAGANRRSFPQGMQQNAYSVPAQPMGAVNSEFYLPEAPQGNKLHGNINKRQERKKLYDNIRSGNFGI
